Results from paper PMC5892938.
This is one part of the list. At the low end of the ranking, values are background and their order means little.

target: GST-SBP-SLBP (stem-loop binding protein) (UniProt Q14493); assay: targeted RNA Bind-n-Seq; details: RBNS binding buffer: 25 mM Tris pH 7.5, 150 mM KCl, 3 mM MgCl2, 0.1% Tween, 0.5 mg/mL BSA, 1 mM DTT; 27 nM protein, 750 pM RNA pool; temperature not stated; high values mean tight binding;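 further: DESeq read counts versus GST-SBP nonspecific binding control pulldown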

Sequence | binding signal (log2 fold change)
GGUCACGUCUCAAUCAACUCGUCUUCAGGAGUUUCCUCCUGUUUUUUCAACAGCUCGCAGUCAAG | -0.0508
GGUCACGUCUCAAUCAACUCUUUCUCAGGAGUUUUCUCCUGCAAACUCAACAGCUCGCAGUCAAG | 0.141
GGUCACGUCUCAAUCAACUCAUCCCCAGGAGUUUUCUCCUGCUUAGUCAACAGCUCGCAGUCAAG | -0.00922
GGUCACGUCUCAAUCAACUCAUCGCCCAGGGAAACCCCUGGUUAUCUCAACAGCUCGCAGUCAAG | -0.237
GGUCACGUCUCAAUCAACUCAUUCCCCAGGGAAAACCCUGGUUUUCUCAACAGCUCGCAGUCAAG | -0.0596
GGUCACGUCUCAAUCAACUCCUCGGAGGGGGGGAAAACCCCUUUACCCUCAUUCUCAACAGCUCGCAGUCAAG | 0.168
GGUCACGUCUCAAUCAACUCUCUAGAGGGGGGGAAAACCCCUUUGCCCUCAUUCUCAACAGCUCGCAGUCAAG | -0.173
GGUCACGUCUCAAUCAACUCAUAGGAGGGGGGGAAAACCCCUUUACCCUCAUCAUCAACAGCUCGCAGUCAAG | 0.315
GGUCACGUCUCAAUCAACUCUCUCGAGGGGGGGAAAACCCCUUUGCCCUCAACAUCAACAGCUCGCAGUCAAG | 0.307
GGUCACGUCUCAAUCAACUCAUUUCCCAGGGAAAUCCCUGGCAUACUCAACAGCUCGCAGUCAAG | -0.0927
GGUCACGUCUCAAUCAACUCACACGAGGGGGGGAAAACCCCUUUACCCUCCAUAUCAACAGCUCGCAGUCAAG | 0.0641
GGUCACGUCUCAAUCAACUCAAACGAGGGGGGGAAAACCCCUUUACCCUCACUCUCAACAGCUCGCAGUCAAG | -0.167
GGUCACGUCUCAAUCAACUCUUUCUCAGGAGUUUCCUCCUGCAAAUUCAACAGCUCGCAGUCAAG | -0.00476
GGUCACGUCUCAAUCAACUCUUCUUCCAGGGAAACCCCUGGCUAAUUCAACAGCUCGCAGUCAAG | -0.0759
GGUCACGUCUCAAUCAACUCUUUUUCCAGGGAAACCCCUGGCAUUCUCAACAGCUCGCAGUCAAG | 0.0708
GGUCACGUCUCAAUCAACUCAUCUUCAGGAGUUUCCUCCUGCUAACUCAACAGCUCGCAGUCAAG | 0.0808
GGUCACGUCUCAAUCAACUCUAAAGAGGGGGGGAAAACCCCUUUGCCCUCAAUAUCAACAGCUCGCAGUCAAG | 0.133
GGUCACGUCUCAAUCAACUCAGUCUCAGGAGUUUUCUCCUGCUAAUUCAACAGCUCGCAGUCAAG | -0.103
GGUCACGUCUCAAUCAACUCUAUUUCAGGAGUUUUCUCCUGUUAAUUCAACAGCUCGCAGUCAAG | 0.267
GGUCACGUCUCAAUCAACUCAAUCUCAGGAGUUUGCUCCUGUAUUUUCAACAGCUCGCAGUCAAG | 0.0641
GGUCACGUCUCAAUCAACUCAACUUCCAGGGAAAUCCCUGGCAUAUUCAACAGCUCGCAGUCAAG | -0.0196
GGUCACGUCUCAAUCAACUCCUUAGAGGGGGGGAAAACCCCUUUGCCCUCACCAUCAACAGCUCGCAGUCAAG | -0.296
GGUCACGUCUCAAUCAACUCUACGCCAGGAGUUUCCUCCUGUAAUCUCAACAGCUCGCAGUCAAG | 0.132
GGUCACGUCUCAAUCAACUCAAUCUCAGGAGUUUCCUCCUGCAAACUCAACAGCUCGCAGUCAAG | 0.122
GGUCACGUCUCAAUCAACUCAUUCGCAGGAGUUUCCUCCUGGUUAUUCAACAGCUCGCAGUCAAG | 0.0672

Sequence | binding signal (log2 fold change)
GGUCACGUCUCAAUCAACUCAUUUUCAGGAGUUUUCUCCUGUGUAUUCAACAGCUCGCAGUCAAG | 0.0477
GGUCACGUCUCAAUCAACUCUUACGAGGGGGGGAAAACCCCUUUGCCCUCAAAUUCAACAGCUCGCAGUCAAG | 0.347
GGUCACGUCUCAAUCAACUCUACUCCAGGAGUUUUCUCCUGCAAAUUCAACAGCUCGCAGUCAAG | 0.0688
GGUCACGUCUCAAUCAACUCAUCUUCAGGAGUUUGCUCCUGUAUAUUCAACAGCUCGCAGUCAAG | -0.0541
GGUCACGUCUCAAUCAACUCAUUUCCAGGAGUUUUCUCCUGUAAUUUCAACAGCUCGCAGUCAAG | 0.0498
GGUCACGUCUCAAUCAACUCUAUUCCAGGAGUUUUCUCCUGCUAACUCAACAGCUCGCAGUCAAG | 0.0174
GGUCACGUCUCAAUCAACUCAACUCCAGGAGUUUCCUCCUGCAAUCUCAACAGCUCGCAGUCAAG | 0.0162
GGUCACGUCUCAAUCAACUCUAGGUCAGGAGUUUUCUCCUGUAAAUUCAACAGCUCGCAGUCAAG | 0.00903
GGUCACGUCUCAAUCAACUCUUUCUCAGGAGUUUUCUCCUGUAAACUCAACAGCUCGCAGUCAAG | -0.00247
GGUCACGUCUCAAUCAACUCUUUCUCAGGAGUUUACUCCUGUAUUUUCAACAGCUCGCAGUCAAG | -0.172
GGUCACGUCUCAAUCAACUCUACUCCCAGGGAAAUCCCUGGCUUAUUCAACAGCUCGCAGUCAAG | -0.00341
GGUCACGUCUCAAUCAACUCAUUCCCAGGAGUUUGCUCCUGUAUUCUCAACAGCUCGCAGUCAAG | 0.139
GGUCACGUCUCAAUCAACUCAUUCUCCAGGGAAAGCCCUGGUAAUUUCAACAGCUCGCAGUCAAG | -0.135
GGUCACGUCUCAAUCAACUCUUUCUCCAGGGAAAGCCCUGGCUUUCUCAACAGCUCGCAGUCAAG | 0.122
GGUCACGUCUCAAUCAACUCAACUUCCAGGGAAAUCCCUGGCUUUUUCAACAGCUCGCAGUCAAG | -0.148
GGUCACGUCUCAAUCAACUCUCCCGAGGGGGGGAAAACCCCUUUACCCUCUUUAUCAACAGCUCGCAGUCAAG | -0.146
GGUCACGUCUCAAUCAACUCAUCCGAGGGGGGGAAAACCCCUUUACCCUCAACAUCAACAGCUCGCAGUCAAG | -0.446
GGUCACGUCUCAAUCAACUCAUCUUCCAGGGAAAGCCCUGGUUAUUUCAACAGCUCGCAGUCAAG | -0.11
GGUCACGUCUCAAUCAACUCCCUCGAGGGGGGGAAAACCCCUUUACCCUCAACCUCAACAGCUCGCAGUCAAG | -0.269
GGUCACGUCUCAAUCAACUCUACUUCCAGGGAAAACCCUGGCUUACUCAACAGCUCGCAGUCAAG | 0.229
GGUCACGUCUCAAUCAACUCUACUCCAGGAGUUUACUCCUGCUAAUUCAACAGCUCGCAGUCAAG | 0.145
GGUCACGUCUCAAUCAACUCGCAAGAGGGGGGGAAAACCCCUUUACCCUCACAAUCAACAGCUCGCAGUCAAG | 0.536
GGUCACGUCUCAAUCAACUCUUCUUCCAGGGAAACCCCUGGUUUUCUCAACAGCUCGCAGUCAAG | 0.0175
GGUCACGUCUCAAUCAACUCUAUCUCAGGAGUUUACUCCUGUAUUCUCAACAGCUCGCAGUCAAG | 0.228
GGUCACGUCUCAAUCAACUCAGUCCCAGGAGUUUCCUCCUGUUUUCUCAACAGCUCGCAGUCAAG | 0.0303

Sequence | binding signal (log2 fold change)
GGUCACGUCUCAAUCAACUCAAUCUCAGGAGUUUCCUCCUGUAUACUCAACAGCUCGCAGUCAAG | 0.0768
GGUCACGUCUCAAUCAACUCUUUUUCAGGAGUUUCCUCCUGCUAUUUCAACAGCUCGCAGUCAAG | 0.00196
GGUCACGUCUCAAUCAACUCCAUAGAGGGGGGGAAAACCCCUUUACCCUCCGUUUCAACAGCUCGCAGUCAAG | 0.173
GGUCACGUCUCAAUCAACUCUUUUUCCAGGGAAACCCCUGGCUUAUUCAACAGCUCGCAGUCAAG | 0.0123
GGUCACGUCUCAAUCAACUCUAUUUCCAGGGAAACCCCUGGUUUACUCAACAGCUCGCAGUCAAG | -0.0408
GGUCACGUCUCAAUCAACUCUUCUCCCAGGGAAACCCCUGGUUUAUUCAACAGCUCGCAGUCAAG | -0.299
GGUCACGUCUCAAUCAACUCUUUCGCAGGAGUUUCCUCCUGGUUUUUCAACAGCUCGCAGUCAAG | 0.0475
GGUCACGUCUCAAUCAACUCUUUCUCAGGAGUUUCCUCCUGUAAUCUCAACAGCUCGCAGUCAAG | 0.00473
GGUCACGUCUCAAUCAACUCUAUCCCCAGGGAAAACCCUGGUAUACUCAACAGCUCGCAGUCAAG | 0.164
GGUCACGUCUCAAUCAACUCUUUCCCAGGAGUUUACUCCUGCAUUUUCAACAGCUCGCAGUCAAG | 0.138
GGUCACGUCUCAAUCAACUCUAUUCCCAGGGAAACCCCUGGUUUAUUCAACAGCUCGCAGUCAAG | 0.182
GGUCACGUCUCAAUCAACUCUAUCCCAGGAGUUUACUCCUGUUAAUUCAACAGCUCGCAGUCAAG | 0.0459
GGUCACGUCUCAAUCAACUCAUUUUCCAGGGAAACCCCUGGCUUACUCAACAGCUCGCAGUCAAG | 0.234
GGUCACGUCUCAAUCAACUCCCUCGAGGGGGGGAAAACCCCUUUACCCUCACUUUCAACAGCUCGCAGUCAAG | 0.101
GGUCACGUCUCAAUCAACUCUACUUCCAGGGAAAGCCCUGGCUUUCUCAACAGCUCGCAGUCAAG | 0.134
GGUCACGUCUCAAUCAACUCAUAAGAGGGGGGGAAAACCCCUUUACCCUCAUUCUCAACAGCUCGCAGUCAAG | -0.0262
GGUCACGUCUCAAUCAACUCAUCCUCCAGGGAAAUCCCUGGCAUACUCAACAGCUCGCAGUCAAG | -0.114
GGUCACGUCUCAAUCAACUCAUUUGCAGGAGUUUCCUCCUGGUAUUUCAACAGCUCGCAGUCAAG | -0.0338
GGUCACGUCUCAAUCAACUCAGAAGAGGGGGGGAAAACCCCUUUACCCUCCAAAUCAACAGCUCGCAGUCAAG | 0.431
GGUCACGUCUCAAUCAACUCAACUCCCAGGGAAACCCCUGGCUAUUUCAACAGCUCGCAGUCAAG | -0.244
GGUCACGUCUCAAUCAACUCCAUAGAGGGGGGGAAAACCCCUUUACCCUCCAAAUCAACAGCUCGCAGUCAAG | -0.662
GGUCACGUCUCAAUCAACUCUUCCUCAGGAGUUUUCUCCUGUAUUUUCAACAGCUCGCAGUCAAG | 0.124
GGUCACGUCUCAAUCAACUCAUUCUCAGGAGUUUCCUCCUGCUAUCUCAACAGCUCGCAGUCAAG | 0.0249
GGUCACGUCUCAAUCAACUCAACUCCCAGGGAAACCCCUGGUUUUCUCAACAGCUCGCAGUCAAG | -0.0139
